{
  "source": "PubChem BioAssay AID463173",
  "about": "(ICCB-Longwood Screening Facility, Harvard Medical School, 2010)",
  "note": "Screen size: about 52,000 compounds; about 1,700 (3.3%) were called active. No stated cut-off is given here; in the data, active means survival mostly below about 52% (no sharp cut-off); inactive means mostly above about 56%. This is one part of the list.",
  "data": [
    {"system": "Wild type", "test": "S. aureus survival, RN4220 and DeltatarO strains – OD600, teichoic acid synthesis inhibitors, primary screen (AID 463173)", "settings": "S. aureus RN4220 wild type/DeltatarO growth, OD600, 18 h, active compounds read low, screened at 18.75 µg/mL (by protocol)", "values": [
      {"molecule": "Cc1nc2ccccc2n1CCc1nc2c3ccccc3nc(SCc3cccc(F)c3)n2n1", "survival": "inactive: 74%"},
      {"molecule": "Cc1ccc2c(=O)c(C(=O)c3ccccc3)cn(CC(=O)Nc3ccc4c(c3)OCCO4)c2n1", "survival": "inactive: 69%"},
      {"molecule": "CC1CCN(C(=O)CSCC(=O)O)CC1", "survival": "inactive: 101%"},
      {"molecule": "CC(C)(C)c1ccc(C2Sc3ccccc3NC3=C2C(=O)c2ccccc23)cc1", "note": "(stereo not given)", "survival": "inactive: 82%"},
      {"molecule": "Cn1c(=O)c2sccc2n2c(CCC(=O)NCc3ccc(F)cc3)nnc12", "survival": "inactive: 83%"},
      {"molecule": "COc1ccc(CCNC(=O)CCn2c(=O)c3ccccc3n(CC(=O)Nc3ccccc3F)c2=O)cc1OC", "survival": "inactive: 87%"},
      {"molecule": "COC(=O)c1cnn(-c2ccc(C(=O)Nc3cccc(C(C)=O)c3)cc2)c1N", "survival": "inactive: 79%"},
      {"molecule": "CCOc1ccc(NC(=O)CC2C(=O)N(c3ccccc3)C(=O)N2CCc2ccc(OC)cc2)cc1", "note": "(stereo not given)", "survival": "inactive: 72%"},
      {"molecule": "Cc1cc2cccc(C)c2nc1SCC(=O)O", "survival": "inactive: 104%"},
      {"molecule": "COc1ccc(Cn2c(C(=O)O)c(CNCc3cccc(OC)c3)c3ccc(C)cc32)cc1", "survival": "inactive: 76%"},
      {"molecule": "CCCCN(CC)CCNC(=O)Cn1cnc2sc(C)c(S(=O)(=O)N3CCC(C)CC3)c2c1=O", "survival": "inactive: 75%"},
      {"molecule": "CC1(C)C=C2C(=NN(c3ccccc3)C(N)=C2C#N)CO1", "survival": "inactive: 110%"},
      {"molecule": "O=C1CN(C(=O)Cc2ccc(F)cc2)C(c2ccccc2)c2cc(Br)ccc2N1", "note": "(stereo not given)", "survival": "inactive: 86%"},
      {"molecule": "Cn1c(=O)oc2cc(S(=O)(=O)N3CCC(C(=O)NCc4ccccc4Cl)CC3)ccc21", "survival": "inactive: 133%"},
      {"molecule": "Cc1ccc(NC(=O)Cn2nc(C)c3nn(-c4ccc(Cl)cc4)c(C)c3c2=O)cc1C", "survival": "inactive: 78%"},
      {"molecule": "CC(=O)c1ccc(N2CCN(S(=O)(=O)c3c(C)nc4sc(C)cn4c3=O)CC2)cc1", "survival": "inactive: 92%"},
      {"molecule": "Cc1cccc(N2CCN(C(=O)C3CCC(CNS(=O)(=O)c4ccc(Br)s4)CC3)CC2)c1C", "note": "(stereo not given)", "survival": "inactive: 77%"},
      {"molecule": "CCc1nn(CC(=O)N2CCN(c3cccc(C)c3C)CC2)c(=O)c2cc3occc3n12", "survival": "inactive: 87%"},
      {"molecule": "COc1ccc(N2C(=O)CSC23C(=O)N(CC(=O)NC2CCCCC2)c2ccccc23)cc1", "note": "(stereo not given)", "survival": "inactive: 89%"},
      {"molecule": "Cc1cccc(OCc2cc(=O)n3c(-c4ccccc4)csc3n2)c1C", "survival": "inactive: 92%"},
      {"molecule": "CCOC(=O)c1[nH]c(C)c(CCC(=O)Nc2c(C)cc(C)cc2C)c1C", "survival": "inactive: 127%"},
      {"molecule": "CCCn1c(SCc2nc(-c3ccccc3C)no2)nnc1-c1ccc(Cl)cc1", "survival": "inactive: 78%"},
      {"molecule": "Cn1c(CN2CCCCC2)nc2cc(NC(=O)c3cccc(Br)c3)ccc21", "survival": "inactive: 92%"},
      {"molecule": "NC(=O)CSc1oc(-c2ccco2)nc1S(=O)(=O)c1ccc(Br)cc1", "survival": "inactive: 91%"},
      {"molecule": "CCCCn1cc(S(=O)(=O)c2ccc(C)c(C)c2)c(=O)c2cc(F)c(N3CCN(C)CC3)cc21", "survival": "inactive: 70%"},
      {"molecule": "CCOC(=O)N1CCN(C(=O)Cc2cccs2)CC1", "survival": "inactive: 114%"},
      {"molecule": "CCc1nn(CC(=O)NC(C)CCc2ccccc2)c(=O)c2cc3cc(F)ccc3n12", "note": "(stereo not given)", "survival": "inactive: 78%"},
      {"molecule": "CCc1nnc(NC(=O)c2nc(S(=O)(=O)Cc3cccc(C)c3)ncc2Cl)s1", "survival": "inactive: 55%"},
      {"molecule": "CCC(C(=O)Nc1ccccc1C(=O)OC)n1c(C)c2cnn(-c3ccccc3)c(=O)c2c1C", "note": "(stereo not given)", "survival": "inactive: 85%"},
      {"molecule": "CCC(Oc1ccccc1)C(=O)Nc1ccc(O)c(-c2nc3cc(C)ccc3o2)c1", "note": "(stereo not given)", "survival": "inactive: 78%"},
      {"molecule": "O=C(CN1C(=O)CCSc2ccc(S(=O)(=O)N3CCCC3)cc21)Nc1ccccc1", "survival": "inactive: 82%"},
      {"molecule": "CCn1cc(C(=O)NCCCOC(C)C)c(=O)c2cc(S(=O)(=O)N3CCc4ccccc4C3)ccc21", "survival": "inactive: 128%"},
      {"molecule": "Cc1cc(S(=O)(=O)N2CCCC2)ccc1-n1cnnn1", "survival": "inactive: 111%"},
      {"molecule": "O=C(Cn1cc(S(=O)(=O)Cc2ccccc2Cl)c2ccccc21)NCc1ccccc1Cl", "survival": "inactive: 95%"},
      {"molecule": "COc1ccc(NC(=O)Cn2c(=O)n(CCCC(=O)NCc3ccccc3OC)c(=O)c3ccccc32)cc1Cl", "survival": "inactive: 136%"},
      {"molecule": "COc1cccc(NC(=O)CCS(=O)(=O)c2ccc3c(c2)oc(=O)n3C)c1", "survival": "inactive: 72%"},
      {"molecule": "Cn1c(NCCCCO)nc2c1c(=O)n(Cc1ccc(Cl)cc1)c(=O)n2C", "survival": "inactive: 78%"},
      {"molecule": "Cc1ccc(C)c(Cn2c(C(C)NC(=O)c3ccc(F)cc3)nc3ccccc32)c1", "note": "(stereo not given)", "survival": "inactive: 83%"},
      {"molecule": "CCN(c1ccccc1)S(=O)(=O)c1cc(-c2onc(C)c2C)ccc1OC", "survival": "inactive: 63%"},
      {"molecule": "CCOc1ccccc1NC(=O)CCS(=O)(=O)c1cccc2nsnc12", "survival": "inactive: 103%"},
      {"molecule": "Cc1c2cnn(CC(=O)N3CCN(c4ccccc4)CC3)c(=O)c2c(C)n1Cc1ccc(F)cc1", "survival": "inactive: 85%"},
      {"molecule": "Cc1cccc(N2CCN(C(=O)C3CCCN(S(=O)(=O)c4cccc5nsnc45)C3)CC2)c1C", "note": "(stereo not given)", "survival": "inactive: 67%"},
      {"molecule": "O=C1CC(c2ccccc2)Cc2[nH]c(=O)c(C(=O)Nc3ccc(OC(F)(F)F)cc3)cc21", "note": "(stereo not given)", "survival": "inactive: 139%"},
      {"molecule": "CCn1c(=O)c2sccc2n2c(CCCC(=O)N3CCN(c4ccc(OC)cc4)CC3)nnc12", "survival": "inactive: 96%"},
      {"molecule": "COc1cccc(N2C(=O)C(CC(=O)Nc3ccc(Cl)cc3)N(Cc3ccc4c(c3)OCO4)C2=O)c1", "note": "(stereo not given)", "survival": "inactive: 53%"},
      {"molecule": "CCc1cccc(NC(=O)c2nnn(Cc3ccc(SC)cc3)c2N)c1", "survival": "inactive: 83%"},
      {"molecule": "COc1ccc(N2CCN(C(=O)c3c(C)oc4ncnc(N5CCCCC5)c34)CC2)cc1", "survival": "inactive: 123%"},
      {"molecule": "CCOCCCNC(=O)C(c1ccccc1)N(Cc1cccs1)C(=O)c1ccc(NC(C)=O)cc1", "note": "(stereo not given)", "survival": "inactive: 94%"},
      {"molecule": "COCCn1c(CCC(=O)Nc2cc(C)ccc2C)nc2cccnc21", "survival": "inactive: 127%"},
      {"molecule": "Cc1cccc(-c2noc(CCCC(=O)NCc3ccco3)n2)c1", "survival": "inactive: 84%"},
      {"molecule": "O=C(Nc1ccc(Br)cc1)C1CCCN(S(=O)(=O)c2ccc(Br)s2)C1", "note": "(stereo not given)", "survival": "inactive: 85%"},
      {"molecule": "O=c1[nH]c2ccc(NCc3ccc(-c4cccc(Cl)c4)o3)cc2[nH]1", "survival": "inactive: 88%"},
      {"molecule": "CCOc1ccc(S(=O)(=O)N2CCN(c3cc(Cl)ccc3Cl)CC2)c2ccccc12", "survival": "inactive: 79%"},
      {"molecule": "Cn1c(=O)c2c(SCC(=O)N3CCc4ccccc43)nc(-c3cccc(F)c3)nc2n(C)c1=O", "survival": "inactive: 146%"},
      {"molecule": "CCOc1ccccc1CNC(=O)C1CCN(S(=O)(=O)c2cccc3nonc23)CC1", "survival": "inactive: 63%"}
    ]}
  ]
}
